Measurements taken from patent US20250326835A1, “USE OF ANTI-CLAUDIN-1 ANTIBODIES TO TREAT CHOLANGIOCARCINOMA” (Alentis Therapeutics AG, priority 2022, published 2025).

Key:
EGI-1 cells = assay: Transwell Matrigel invasion assay, EGI-1; assay type: cell-based, human; settings: EGI-1, 20 μg/mL for 3 days vs isotype control mAb; p=0.02
Experimental: In an additional study, a transwell invasion assay was used to assess the effect of anti-CLDN1 mAb H3L3 treatment on cancer invasion. In this assay, EGI-1 or HuCC-T1 cells were seeded in 12 well plates and treated with 20 μg/mL isotype control mAb or with 20 μg/mL anti-CLDN1 mAb H3L3 (Colpitts et al., 67(4) Gut 736-745 (March 2017)) for 3 days. 0.5×10^5 cells were then seeded in transwells (8-μm pore polycarbonate membrane insert) in 24-well dishes with 75 μl Matrigel (Corning) and serum-free medium (1:20). Following solidification for 10 minutes in the incubator (37° C., 5% CO2), 600 μL of 1% serum-supplemented medium was added to the bottom wells. Non-invading cells were removed by scrubbing with cotton swabs, and invading cells were fixed using 70% ethanol and stained with crystal violet (0.2%) after 72 hours. Cells on the underside of the membranes were then visualized in 5 randomly selected fields and quantified using ImageJ. Each experiment was independently repeated at least three times.

[1] = test system: EGI-1 (extrahepatic CCA) cell line; assay: EGI-1 cell line-derived xenograft (CDX) mouse model, tumor growth and skin ulceration; assay type: in vivo
Source text: To assess the in vivo anti-tumorigenic activity of an anti-CLDN1 monoclonal (CLDN1 mAb H3L3) antibody in CCA, anti-CLDN1 mAb's effect on tumor growth was investigated in both intrahepatic CCA and extrahepatic CCA cell line-derived xenograft (CDX) mouse models.
Non-Obese Diabetic Rag1^−/−IL2Rgc^−/− (NRG) were subcutaneously injected with 5×10^6 cells of HuCC-A1 (intrahepatic CCA) or EGI-1 (extrahepatic CCA) cell line. Non-Obese Diabetic Prkdc^scidIL2Rg^−/− (NSG) were subcutaneously injected with 5×10^6 cells of the HuCC-T1 (intrahepatic CCA) cell line. When the average tumor volumes reached 40-50 mm^3, mice were randomized into two different groups and treated for 6 weeks with the anti-CLDN1 mAb H3L3 (25 mg/kg i.p. once per week), or with vehicle control (PBS i.p. once per week). Tumor growth was monitored using a digital caliper and tumor volume was calculated using the ½ (length×width^2) formula. (FIG. 2A).

[2] = test system: intrahepatic CCA cell line (HuCC-A1); assay: Wound healing (cell migration) assay, HuCC-A1 co-cultured with LX2; assay type: cell-based, human; settings: HuCC-A1/LX2 co-culture, 20 μg/mL vs isotype control mAb; p=0.02
Experimental: Next, the effect of anti-CLDN1 mAb H3L3 on cell migration was assessed in a cell-based wound healing assay using an extrahepatic CCA cell line (KKU100), and an intrahepatic CCA cell line (HuCC-A1).
In the wound healing assay, 1.5×10^5 CCA cells were co-cultured in 12 well plates (Corning) with LX2 in a ratio of 1:1 to reproduce the stromal architecture seen in CCA tumors. Co-cultures were treated for 3 days with 20 μg/mL isotype control mAb or with 20 μg/mL anti-CLDN1 mAb H3L3. At day 3, wounds were created in the confluent cell monolayer using a pipette tip. Cells were then washed once with PBS to remove debris and covered with 1% FBS media and treated again with 20 μg/mL isotype control mAb or with 20 μg/mL anti-CLDN1 mAb H3L3. Plates were incubated at 37° C. and wounds were imaged at 0, 24 and 48 h. Relative percent of wound closure was measured using ImageJ. Each experiment was independently repeated at least three times.

EGI-1 CCA cells = assay: Western blot signaling studies in EGI-1 and EGI-1/LX2 cell-based models; parameters: species or system human; settings: EGI-1 cells, 10 μg/mL for 2 days
Experimental: To corroborate the effect of the anti-CLDN1 mAb H3L3 on CCA signaling observed in vivo (FIGS. 4A-4C), additional signaling studies were performed in CCA cell-based models. The CCA models consisted of 1.5×10^5 EGI-1 CCA cells or a co-culture of CCA EGI-1 with LX2 stellate cells (ratio 1:5) treated with anti-CLDN1 mAb H3L3 (Colpitts et al., 67(4) Gut 736-745 (March 2017)) (10 μg/mL) or isotype control mAb (10 μg/mL) for 2 days. At day 2 post-treatment, cells were stimulated with TNF-α (10 ng/mL) for 24 hours to assess SRC and FAK signaling, or Jagged-1 (50 ng/mL, SRP8012, Sigma-Aldrich) for 24 hours to assess Notch1 signaling. For protein extraction from cell cultures, cells were lysed using Glo lysis buffer (E2661, Promega) supplemented with protease and phosphatase inhibitors (78442, Halt™ Protease and Phosphatase Inhibitor Single-Use Cocktail, Thermo Fisher) for 20 minutes at 4° C. Samples were then centrifuged at 15000 rpm for 10 minutes and the supernatant was collected. Protein quantification was performed using the Bio-Rad DC assay Kit. Gels were prepared following the Biorad TGX gel protocol (BioRad). Gels were transferred using the Biorad trans blot turbo protocol (BioRad) into PVDF membranes. Blocking of the membranes was performed with 5% BSA in TBS-T for 1 hour. The membranes were incubated with anti-SRC Rabbit mAb (#21085, Cell Signaling Technology), Phospho-SRC (Tyr416) Rabbit mAb (#21015, Cell Signaling Technology), anti-Notch1 (D1E11) XP® rabbit mAb (#3608, Cell Signaling Technology), anti-cleaved Notch1 (Val1744) (D3B8) rabbit mAb (#4147, Cell Signaling Technology), anti-FAK rabbit mAb (#3285, Cell Signaling Technology), anti-phospho-FAK (Tyr576/577) rabbit mAb (#3281, Cell Signaling Technology) and anti-β-actin antibody (Sigma) in 5% milk in TBS-T for 2 hours at room temperature. Secondary antibodies used were peroxidase AffiniPure goat anti-rabbit IgG (H+L) mAb (Jackson ImmunoResearch) or ECL mouse IgG, HRP-linked whole Ab (Amersham). Protein immunodetection of the membranes was performed with Clarity ECL Western Blot Substrate (Biorad) in a ChemiDoc MP Imaging System (Biorad). Each experiment was independently repeated at least three times.

[3] = Jagged-1 stimulation, vs isotype control mAb
[4] = TNF-α stimulation, vs control-treated cells

B1: anti-CLDN1 mAb H3L3: humanized anti-Claudin-1 monoclonal antibody; heavy chain SEQ ID NO: 11, light chain SEQ ID NO: 12 (VH SEQ 13, VL SEQ 14) (antibody)
heavy: QVQLVESGGGVVQPGRSLRLSCLGSGFSFSSYGMNWVRQAPGKGLEWVASISPSGSYFYYADSVKGRFTISRDNSKNTLYLQMTSLRAEDTAIYYCARLPGFNPPFDHWGQGTLVTVSSASTKGPSVFPLAPSSKSTSGGTAALGCLVKDYFPEPVTVSWNSGALTSGVHTFPAVLQSSGLYSLSSVVTVPSSSLGTQTYICNVNHKPSNTKVDKRV[no letters for human IgG1 Fc]
light: DIQMTQSPSSLSASVGDRVTITCKASQNVGGNVDWYQWKPGKAPKLLIYGASNRYTGVPDRFRGSGSGTDFTLTISSLQPEDVATYYCLQYKNNPWTFGGGTKVEIKRTVAAPSVFIFPPSDEQLKSGTASVVCLLNNFYPREAKVQWKVDNALQSGNSQESVTEQDSKDSTYSLSSTLTLSKADYEKHKVYACEVTHQGLSSPVTKSFNRGEC
modifications: H3L3 Heavy Chain; H3L3 Light Chain
- number of invasive cells (EGI-1 cells): markedly and significantly decreased
- tumor growth (tumor volume) ([1]; EGI-1 CDX NRG mice, 25 mg/kg i.p. once per week for 6 weeks vs PBS, p<0.05): delayed tumor growth
- skin ulceration induced by tumors ([1]; EGI-1 CDX model, 25 mg/kg i.p. once per week vs PBS, p<0.01): significant reduction of skin ulceration
- CCA cell migration (wound closure) [2]: significantly and specifically decreased CCA cell migration
- Hes1 (downstream target of Notch1) (EGI-1 CCA cells; [3]): robust decrease
- cleaved Notch1 (EGI-1 CCA cells; [3]): robust decrease
- FAK phosphorylation (EGI-1 CCA cells; [4]): reduced
- SRC phosphorylation (EGI-1 CCA cells; [4]): reduced
